Source: PubChem BioAssay (NCI)
“And” between values parts separate entries of the source, which are not always exact repeats. Equal entries are not always repeated.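 Compound exposure: 48 hours, 5 concentrations, 96-well plates. GI50: concentration for 50% inhibition of growth. At the TGI there is no net growth.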

System: NCI-H322M lung
Assay: NCI tumour cell line growth inhibition, 48 h

Compound | TGI | GI50 [µM]
CCCCC/C=C1\CC(CO)(COC(=O)CC(C(C)C)C(C)C)OC1=O (stereo unspecified) | 29.1 µM | 
COc1ccc(-c2cc3c(OC)c(OC)c(OC)cc3oc2=O)cc1 | > 100 µM | 6.87
COc1ccc(NS(=O)c2ccc(Cl)cc2)cc1 (stereo unspecified) | > 100 µM | 
CCCn1c2c(c3ccccc3c1=O)C(=O)c1cc3c(cc1-2)OCO3 | > 100 µM | 50.9
O=C(c1ccco1)N(Cc1cccnc1)C(=S)N(Cc1cccnc1)C(=O)c1ccco1 | 39.9 µM | 
O=[N+]([O-])c1ccc2nc3n(c2c1)C(c1c(F)cccc1F)SC3 (stereo unspecified) | > 100 µM | 
N#CCCN(CCNc1ccccc1)C(=O)Nc1ccc(NC(=O)N(CCC#N)CCNc2ccccc2)cc1 | > 100 µM | 
COc1cc([C@@H]2c3cc4c(cc3[C@@H](NC(=O)c3cccc(N)c3)C3COC(=O)[C@@H]32)OCO4)cc(OC)c1O (stereo partly specified) | > 100 µM | 
CC(SC(=S)Nc1cccc(F)c1)C(=O)O (stereo unspecified) | 98.6 µM | 
Cc1nc(C(N)=S)sc1C(=O)CC(=O)C(=O)Nc1c(C(C)C)cccc1C(C)C | 89.4 µM | 
CC(C)OP(=O)(CCCCCCCCC/C=C/c1ccc2c(c1)OCCOCCOCCOCCO2)OC(C)C | 11 µM | 
O=CCOCc1cc2c(cc1Br)OCO2 | > 100 µM | 
CC(C)(C)CC(C)(C)c1ccc(OCCSC(=N)N)cc1 | 3.17 µM | 1.7
COc1ccc(-c2nc3ccc([N+](=O)[O-])cc3c(=O)[nH]2)cc1 | > 100 µM | 
CCN(CC)CCn1c(=O)c2ccccc2n2c3c(=O)n(C)c(=O)n(C)c3nc12 | 18.8 µM | 
Cc1cccc(NC(=S)Nc2ccc(Cl)cc2)n1 | > 100 µM | 
COC(=O)C(C(=O)C(=O)Nc1ccc(Br)cc1)c1nc2ccc(Cl)cc2[nH]c1=O (stereo unspecified) | > 100 µM | 
C=CCOC1=CC(=O)c2ccccc2C1=O | 29.6 µM | 15.4
CC1(C)[C@@H](Cn2nnc3c(N)ncnc32)CC[C@@]1(C)CO | > 100 µM | 
CC(=O)O[C@H]1CC2C(C3CC[C@H](C(C)CCC(N)=O)[C@]31C)[C@H](OC(C)=O)C[C@@H]1CC3(CC[C@]21C)OOC1(CCC(C)CC1)OO3 (stereo partly specified) | 22.7 µM and 16.1 µM | 

Compound | TGI | GI50 [µM]
O=C1C2=C(CCCC2)Nc2cccc3ncn1c23 | > 100 µM | 
NS(=O)(=O)c1ccc(Nc2ncc(-c3ccccc3)o2)cc1 | > 25 µM | > 25
Cc1cc(C)c2c(=O)cc(-c3cccc(Cl)c3)[nH]c2n1 | > 100 µM | 
CN(CC(=O)O)c1ncc2c(n1)-c1ccccc1OC2c1ccccc1 (stereo unspecified) | > 100 µM | 
O=C(COc1ccc(OCC(=O)N2C(=O)CN(c3ccc(Cl)cc3)C2=S)cc1)N1C(=O)CN(c2ccc(Cl)cc2)C1=S | 61.8 µM | 
CCCCCOC(=O)C(=O)Nc1n[nH]nc1C(N)=O | > 100 µM | 
C=CC(O)C#Cc1cnc(OC)nc1OC (stereo unspecified) | > 100 µM | 
Cc1cc(I)cc(CN(C)CCN(C)C)c1O | > 100 µM | 48.4
OCCCNCC(O)c1ccc(OCc2ccccc2)c(OCc2ccccc2)c1 (stereo unspecified) | 27.1 µM | 
CNCCCNc1c2cc(OC)ccc2nc2cccc([N+](=O)[O-])c12 | 2.56 µM | 0.153
COc1ccc2c(c1)O[C@@H]1[C@@H](OC3OC(CO)C(O)C(O)C3O)Oc3cc(OC)c(OC)cc3[C@]1(O)C2=O (stereo partly specified) | > 100 µM | 
CCCCCCCCCCCCC/C=C/[C@H]1[C@@H](C(=O)OC)N1S(=O)c1ccc(C)cc1 (stereo partly specified) | > 100 µM | 
Cn1cc2ccccc2c1-c1nc(F)nc(Oc2ccc3c(c2)CC[C@@H]2C3CC[C@@]3(C)C2CC[C@@H]3O)n1 (stereo partly specified) | > 100 µM | 
COC(=O)c1nc(-c2ccc(Cl)c(Cl)c2)nc2ccc(Cl)cc12 | > 100 µM | 
O=C1c2ccc3c4c(ccc(c24)C(=O)N1CCCNCc1ccccc1F)C(=O)N(CCCNCc1ccccc1F)C3=O | 0.65 µM | 0.221
COC(=O)C(Cc1nc2ccc(Cl)cc2[nH]c1=O)/C(=N/O)C(=O)Nc1cccc(Cl)c1C (stereo unspecified) | > 100 µM | 
CC1=C(C(=O)Nc2ccc(Cl)c(Cl)c2)C(c2ccccc2Cl)NC(=S)N1 (stereo unspecified) | 18.2 µM | 8.13
COc1ccc(-c2cnoc2-c2ccc(OC)cc2O)cc1 | > 100 µM | 15.1
Cc1ccc2c(=O)cc(-c3cccc(Cl)c3)[nH]c2n1 | > 100 µM | 
Cn1cc(C2=C(c3cn(C)c4cc(C(=O)O)ccc34)C(=O)NC2=O)c2ccccc21 | > 25 µM | > 25
